Experiment [1] has as its target Flag-tagged PCBP2 (human) (UniProt Q15366). Description: co-IP.
For experiment [2], the target named is PCBP2, endogenous in THP-1 (human (endogenous in THP-1)) (UniProt Q15366). The experiment is described as follows: co-IP; endogenous; THP-1 cells with or without HT-DNA (2 μg/ml); PCBP2 antibody or control IgG, protein A/G beads; immunoblot.
Experiment [3] has as its target PCBP2 full-length (FL), transfected in HEK293T (tag not told) (human) (UniProt Q15366). The experiment is described as follows: co-IP.
Experiment [4] deals with GST-PCBP2 (human) (UniProt Q15366). The experiment is described as follows: pull-down; purified cGAS-His incubated with GST-PCBP2 or GST-GFP, pulled down with glutathione-Sepharose beads; Western blot; both purified. (Immunoblotting shows a protein as a band on a membrane.)

Chains of the proteins cited; added tags and fusions are not shown.
UniProt Q15366: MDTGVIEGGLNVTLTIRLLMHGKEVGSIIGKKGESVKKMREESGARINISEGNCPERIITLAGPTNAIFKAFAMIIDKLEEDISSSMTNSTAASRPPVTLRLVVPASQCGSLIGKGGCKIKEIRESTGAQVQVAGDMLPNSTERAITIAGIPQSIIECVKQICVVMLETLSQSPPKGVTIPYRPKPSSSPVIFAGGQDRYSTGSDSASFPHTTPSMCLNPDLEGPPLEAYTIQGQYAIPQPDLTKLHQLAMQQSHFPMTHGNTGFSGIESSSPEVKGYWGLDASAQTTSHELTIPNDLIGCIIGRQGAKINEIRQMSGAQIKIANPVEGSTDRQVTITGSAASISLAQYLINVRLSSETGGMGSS
UniProt Q8N884: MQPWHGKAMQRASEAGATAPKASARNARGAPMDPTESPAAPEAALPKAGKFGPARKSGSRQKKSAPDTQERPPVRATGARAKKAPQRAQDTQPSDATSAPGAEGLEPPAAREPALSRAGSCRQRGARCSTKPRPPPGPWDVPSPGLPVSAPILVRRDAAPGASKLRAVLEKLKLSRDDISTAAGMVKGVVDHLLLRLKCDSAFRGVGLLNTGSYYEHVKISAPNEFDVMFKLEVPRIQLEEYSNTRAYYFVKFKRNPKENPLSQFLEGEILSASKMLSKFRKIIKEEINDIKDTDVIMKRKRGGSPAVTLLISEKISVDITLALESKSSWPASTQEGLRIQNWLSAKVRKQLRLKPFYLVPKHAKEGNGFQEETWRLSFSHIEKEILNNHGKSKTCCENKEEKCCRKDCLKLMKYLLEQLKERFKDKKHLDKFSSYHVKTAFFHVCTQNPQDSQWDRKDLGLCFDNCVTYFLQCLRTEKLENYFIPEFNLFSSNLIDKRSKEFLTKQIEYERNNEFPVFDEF
UniProt Q86WV6: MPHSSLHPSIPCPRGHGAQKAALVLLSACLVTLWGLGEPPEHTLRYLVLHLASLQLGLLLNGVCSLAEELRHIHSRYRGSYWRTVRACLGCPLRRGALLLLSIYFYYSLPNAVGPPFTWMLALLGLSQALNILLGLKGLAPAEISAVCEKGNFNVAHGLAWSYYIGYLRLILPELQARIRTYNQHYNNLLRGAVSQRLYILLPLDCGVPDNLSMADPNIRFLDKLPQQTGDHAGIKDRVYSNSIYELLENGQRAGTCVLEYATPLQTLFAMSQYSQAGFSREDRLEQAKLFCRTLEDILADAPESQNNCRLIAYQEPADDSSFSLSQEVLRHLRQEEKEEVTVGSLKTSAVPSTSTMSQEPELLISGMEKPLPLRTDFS

Results are given in words; binding and its absence hold for the method and conditions named. For part of these data: Binding seen in cells or lysates may run through a third protein. Some results given as binding are weak or reduced against the parent protein; the word gives no strength.

“Myc-tagged cGAS (from UniProt Q8N884 1-522) (enzyme)”: the binding result in experiment [1] is reported as “binds”.

For “STING, endogenous in THP-1 (from UniProt Q86WV6 1-379)”, the binding result in experiment [2] is on record as “no binding”. As for “STING, transfected in HEK293T (from UniProt Q86WV6 1-379)”, in experiment [3], the binding entry is given as “no binding”. Regarding “cGAS, endogenous in THP-1 (from UniProt Q8N884 1-522) (enzyme)”, the binding result in experiment [2] was “binds”. On to “cGAS, transfected in HEK293T (tag not told) (from UniProt Q8N884 1-522) (enzyme)”, for which the binding entry in experiment [3] is “binds”. Take “cGAS-His (from UniProt Q8N884 1-522) (enzyme)”: the binding result in experiment [4] is “binds”.
